PubChem BioAssay AID2546 (National Center for Advancing Translational Sciences (NCATS), 2010)
Several values for one entry are separate records, joined by “and”; a condition that tells them apart may be missing. Equal values may be shown once. The campaign covered roughly 310,000 compounds. About 11,000 (3.5%) were called active. This list was built around the results that the source calls inconclusive (neither active nor inactive); the mix of calls is not that of the screen. Calls follow the shape of the dose curve; as a rule, active = well fitted inhibition curve with a large enough effect; inconclusive = small, poorly fitted or top-dose-only effect, or effect the other way; inactive = flat fitted curve, though single readings scatter. Potencies of inconclusive entries are doubtful fits and often do not repeat.
Potency is read from the fitted curve at half-maximal effect; tags tell the direction and shape of the fitted curve.

Experiment: VP16 counterscreen qHTS for inhibitors of ROR gamma transcriptional activity;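 also: Gal4-VP16 expression switched on by copper sulfate through the metallothionein promoter; nearly all actives have a fitted effect of over 50% in size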
Settings: Drosophila S2 Gal4-VP16 UAS-luciferase, luminescence, 20 h; series mostly up to 53.6 µM
For `Cn1c(=O)c2c(SCC(=O)Nc3ccccc3F)nc(C3CC3)nc2n(C)c1=O`, the Potency was “inactive”. In the case of `CN(C)c1ccc(/C=N/N=C2/NC(=O)/C(=C/c3ccc([N+](=O)[O-])cc3)S2)cc1`, the Potency is reported as inconclusive: 3.98 µM [inhibitor, partial curve]. In the case of `CN1C(=O)C(O)(CC(=O)/C=C/c2ccco2)c2ccccc21` (stereo unspecified), the Potency is reported as inconclusive: 31.6 µM [activator, single point]. In the case of `COc1cccc(C2CC(c3c(-c4ccccc4)c4cc(Cl)ccc4[nH]c3=O)=NN2S(C)(=O)=O)c1OC` (stereo unspecified), the Potency is reported as inconclusive: 25.1 µM [inhibitor, single point]. With `Cc1c(/C=C/C(=O)c2ccc(C(C)C)cc2)cnn1C` the Potency was inconclusive: 1.12 µM [activator, partial curve]. With `COc1ccc(-c2c(-c3ccc(O)cc3O)n[nH]c2C(F)(F)F)cc1` the Potency was active: 10 µM. In the case of `O=C(Nc1nc2c(F)c(F)c(F)cc2s1)c1ccco1`, the Potency is reported as inconclusive: 1.26 µM [inhibitor, full curve]. For `CCSc1ccc2nnc(-c3cccs3)n2n1`, the Potency was “inactive”. With `CC(C)Oc1ccc(/C=N/NC(=O)c2nnn(-c3nonc3N)c2CN(C)c2ccccc2)cc1` the Potency was inconclusive: 11.2 µM [inhibitor, partial curve, poor fit]. For `O=C(Nc1ccc2ccccc2c1)C(c1ccccc1)C1CCCC1` (stereo unspecified), the Potency was inconclusive: 20 µM [inhibitor, single point]. With `Cc1cccc(C(=O)OC2CCOC2=O)c1O` (stereo unspecified) the Potency was “inactive”. With `CCOc1cccc(C(=O)NC(=S)Nc2cccnc2)c1` the Potency was inconclusive: 31.6 µM [inhibitor, single point]. For `Cc1ccc(Nc2nc3ccccc3c(=O)s2)cc1C`, the Potency was active: 3.55 µM. With `O=C(NC(=S)Nc1ccc(Cc2ccncc2)cc1)c1ccccc1F` the Potency was inconclusive: 35.5 µM [inhibitor, single point]. In the case of `CC(C)c1ccc(Cn2ccc3c4c(N)nc(NC5CC5)nc4ccc32)cc1`, the Potency is reported as inconclusive: 31.6 µM [inhibitor, single point]. With `COc1ccc(-c2ccc(-c3noc(-c4cccc(OC)c4)n3)c(OC)n2)cc1` the Potency was inconclusive: 0.398 µM [inhibitor, full curve]. With `Cn1c(=O)n(C)c2cc(S(=O)(=O)NCc3ccccc3)ccc21` the Potency was “inactive”. With `CCOc1ccccc1C(=O)NC(C(=O)OCC(=O)Nc1nnc(-c2ccccc2)o1)C(C)C` (stereo unspecified) the Potency was active: 5.01 µM. With `Cc1ccnc(NC(c2ccsc2)c2ccc3ccc(C)nc3c2O)c1` (stereo unspecified) the Potency was inconclusive: 3.16 µM [inhibitor, single point]. For `COc1ccc(CC2=CC(=O)c3ccccc3C2=O)cc1`, the Potency was active: 10 µM. For `C=CCN1C(=O)/C(=C/C(=O)OC)S/C1=N\NC(=O)c1ccccc1`, the Potency was active: 17.8 µM. For `Cc1nc(SCC(=O)Nc2nc3ccccc3s2)c(C#N)c(C)c1C`, the Potency was inconclusive: 2.24 µM [inhibitor, full curve]. With `Cc1cc2c(c(C)c1Br)C(c1ccc3c(c1)OCO3)CC(=O)O2` (stereo unspecified) the Potency was “inactive”. For `S=C1NC2(CCCCC2)N=C1c1ccccc1`, the Potency was active: 3.55 µM. With `C(=N\NCc1ccccc1)/c1ccc2ncccc2c1` the Potency was “inactive”. In the case of `COC1=C(N)C(=O)c2nc(-c3nc(C(=O)O)c(C)c(-c4ccc(OC)c(OC)c4O)c3N)ccc2C1=O`, the Potency is reported as inconclusive: 22.4 µM [inhibitor, single point]. With `Cc1cc(/C=N/n2cnnc2)c(C)n1-c1ccc(OCc2ccccc2F)cc1` the Potency was inconclusive: 35.5 µM [inhibitor, single point]. For `CCOC(=O)c1ccc(NC(=S)NCCc2ccc(F)cc2)cc1`, the Potency was inconclusive: 25.1 µM [inhibitor, single point]. In the case of `CSc1nc2cc(Oc3cccc(Cl)c3Cl)c(Cl)cc2[nH]1`, the Potency is reported as inconclusive: 20 µM [inhibitor, single point] and inconclusive: 17.8 µM [inhibitor, single point]. For `CC1CCCN(CCCNC(=O)c2cc3c(Cl)nc4ccccc4c3s2)C1` (stereo unspecified), the Potency was “inactive”. With `Cc1cccc(N(CC(=O)N2CCCCCC2)S(C)(=O)=O)c1` the Potency was “inactive”. In the case of `O=C(CNC(=O)Cc1ccccc1)N=Nc1c(O)[nH]c2ccc(Br)cc12`, the Potency is reported as inconclusive: 11.2 µM [inhibitor, single point]. With `COc1ccc(OC)c2c1C(=O)c1ccccc1C2=O` the Potency was “inactive”. With `CC12CC(c3ccccc3O1)N(C(=O)c1ccco1)C(=S)N2c1ccc(F)cc1` (stereo unspecified) the Potency was inconclusive: 31.6 µM [inhibitor, single point]. In the case of `COCCNC(=S)Nc1ccc([N+](=O)[O-])cc1C`, the Potency is reported as inconclusive: 35.5 µM [inhibitor, single point]. With `Cc1ccc(C(=O)CSc2nnc(-c3ccco3)n2Cc2ccccc2)cc1` the Potency was “inactive”. In the case of `CCCc1cc(Nc2ccc(C)cc2)n2ncnc2n1`, the Potency is reported as inconclusive: 35.5 µM [inhibitor, single point]. For `Cc1ccccc1NC(=O)/C(C#N)=C\c1ccsc1`, the Potency was inconclusive: 1 µM [activator, partial curve, poor fit]. For `O=C1c2ccccc2C(=O)c2c(NCc3cccnc3)cccc21`, the Potency was active: 3.16 µM. For `CCOC(=O)c1ccccc1NC(=O)CN(c1cccc(OC)c1)S(C)(=O)=O`, the Potency was inconclusive: 7.94 µM [inhibitor, partial curve, poor fit]. For `CN(C)CCN(C(=O)c1cccc(Cl)c1)c1nc2c(Cl)cccc2s1`, the Potency was “inactive”. For `O=C1/C(=C\c2cc(Br)cc(Br)c2O)SC(=S)N1Cc1ccccc1`, the Potency was inconclusive: 35.5 µM [inhibitor, single point]. In the case of `O=S(=O)(NCC1CCCO1)c1ccc(-c2ccc(S(=O)(=O)NCC3CCCO3)cc2)cc1` (stereo unspecified), the Potency is reported as active: 5.62 µM. For `FC(F)(F)c1cccc(N2CCN(C(=S)NC3CCCCC3)CC2)c1`, the Potency was inconclusive: 35.5 µM [inhibitor, single point]. With `CNc1nc(C)c(C(=O)c2ccc(Cl)cc2)s1` the Potency was inconclusive: 3.55 µM [inhibitor, single point]. For `COCc1ccc(O)c2ncccc12`, the Potency was active: 3.16 µM. With `CCOc1cc(/C=N/NC(=O)c2ccccn2)ccc1OC(=O)c1ccc(F)cc1` the Potency was inconclusive: 35.5 µM [inhibitor, single point]. For `CCOc1ccc(CNC(=S)N/N=C\c2ccc([N+](=O)[O-])cc2)cc1`, the Potency was active: 2.82 µM. For `CCN(CC)C(=S)NC(=O)c1ccc(OC)c(Br)c1`, the Potency was active: 0.501 µM. With `CCN(CC)CCCNc1cc(C)nc2cc(-c3cccs3)nn12` the Potency was inconclusive: 35.5 µM [inhibitor, single point]. In the case of `Oc1c(C(c2cccs2)N2CCN(c3ccccc3)CC2)ccc2cccnc12` (stereo unspecified), the Potency is reported as active: 7.94 µM. In the case of `COc1ccc(N2CCN(S(=O)(=O)c3ccc(Br)s3)CC2)cc1`, the Potency is reported as “inactive”. For `Cc1cc(C)nc(SCc2ccc(F)cc2)n1`, the Potency was “inactive”. With `CCCn1c(C2CCCN2c2nc(-c3ccc(C)cc3)cs2)nc2ccccc21` (stereo unspecified) the Potency was inconclusive: 22.4 µM [inhibitor, single point]. For `O=C(CN1C(=O)NC2NC(=O)NC21)N/N=C/c1ccccc1O` (stereo unspecified), the Potency was “inactive”. In the case of `Cc1ccc(S(=O)(=O)N/N=C/c2ccc(O)c(O)c2)cc1[N+](=O)[O-]`, the Potency is reported as “inactive”. For `CCCOc1ccc(-c2c(C(=O)N/N=C/c3ccc(C)o3)nnn2-c2nonc2N)cc1`, the Potency was active: 5.62 µM. In the case of `O=C(Nc1ccncc1)Nc1ccccc1Cl`, the Potency is reported as “inactive”. For `C/C(=N\NC(=O)c1ccc(Cl)c(Cl)c1)c1cccc(NC(=O)C(C)C)c1`, the Potency was inconclusive: 20 µM [inhibitor, single point]. In the case of `CC1CCC(n2c(=S)[nH]c3ccccc3c2=O)CC1` (stereo unspecified), the Potency is reported as active: 1 µM. In the case of `CC1CCN(c2nnc(-c3cccs3)c3ccccc23)CC1`, the Potency is reported as inconclusive: 12.6 µM [inhibitor, single point]. For `COc1cccc(-c2nnc(NC(C)=O)o2)c1`, the Potency was inconclusive: 35.5 µM [inhibitor, single point]. With `COc1ccc(Cc2nnc(NC(=O)c3ccccc3)s2)cc1OC` the Potency was “inactive”. With `CCOC(=O)c1c(C)oc2c(CN3CCN(C)CC3)c(Br)c(OC)c(O)c12` the Potency was active: 17.8 µM. For `CCCc1cc(=O)n2[nH]cc(-c3ccc(Cl)cc3)c2n1`, the Potency was active: 3.16 µM. With `CC(=O)c1ccc(-n2c(=O)[nH]c(=O)c3c(N)c(C(=O)c4ccc(Cl)cc4)sc32)cc1` the Potency was inconclusive: 11.2 µM [inhibitor, single point]. For `O=C1/C(=C/c2ccccc2)SC(=S)N1CCCC(=O)N1CCCCC1CCO` (stereo unspecified), the Potency was inconclusive: 17.8 µM [inhibitor, partial curve]. With `COc1ccc(C(=O)Nc2cccnc2Sc2ccc(Cl)cc2)cc1` the Potency was “inactive”. With `C=CCn1c(COc2cccc(C)c2)nnc1SCC(=O)NC(=O)NCc1ccco1` the Potency was inconclusive: 25.1 µM [inhibitor, single point]. In the case of `CN(c1ccccc1)c1ccc(/C=C/[N+](=O)[O-])cc1`, the Potency is reported as inconclusive: 35.5 µM [inhibitor, single point]. For `COc1ccc(CC(=O)NC2CC2)cc1OC`, the Potency was “inactive”. In the case of `COCCN1CCn2c(nc3cc(Nc4nnc(C)c5ccccc45)ccc32)C1`, the Potency is reported as “inactive”. With `C/C(=N\NC(=O)c1c(Br)c(C)nn1C)c1ccc(NC(=O)C(C)Oc2ccc(Cl)cc2C)cc1` (stereo unspecified) the Potency was inconclusive: 35.5 µM [inhibitor, single point]. In the case of `CCCCC(=O)Nc1ccc(Br)cn1`, the Potency is reported as inconclusive: 35.5 µM [inhibitor, single point]. For `CCCCNc1c(C(=O)OCC)c(C)nc2c1cnn2CC`, the Potency was inconclusive: 35.5 µM [inhibitor, single point]. With `Nc1c(N=Nc2ccc(-c3ccc(N=Nc4cc(S(=O)(=O)O)c5ccccc5c4N)cc3)cc2)cc(S(=O)(=O)O)c2ccccc12` the Potency was inconclusive: 14.1 µM [inhibitor, partial curve].
